# Screen size: about 2,300 compounds; about 330 (14%) showed activity.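 The calls were made as follows: active = median modified Z-score above 1.96; inactive = 1.96 or below.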 Only a part is listed here, and it is no random draw.
# System: HepG2 Srxn1-GFP reporter cells (+30 nM CDDO-Me)
# Experiment: Srxn1-GFP intensity median modified Z-score relative to plate median; higher = stronger NRF2 / oxidative stress reporter activation, active = hit call of the paper
# Settings: 10 µM; exposure time: 24h
# Outline: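 In 96-well plates holding 20,000 HepG2 Srxn1-GFP BAC reporter cells per well, compound at 10 μM and an NRF2 activator at 30 nM were added together for 24 h, with DMSO at ≤0.1%, across three replicate plates. After fixation in formaldehyde and Hoechst staining, confocal images were analysed cell by cell for cytoplasmic GFP, and images containing under 100 cells were excluded. Values are replicate medians of the per-plate modified Z-score of GFP intensity, scaled by 1.4826 × median absolute deviation.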
row,SMILES,Srxn1-GFP intensity median modified Z-score
1,CCC1(c2ccccc2)NC(=O)N(C)C1=O (stereo not given) [euspeclibcmpd2205],inactive: 0.812
2,COc1cc(C(=O)NCCCCCC(=O)O)cc(OC)c1OC [euspeclibcmpd778],inactive: -0.747
3,CCc1c(C)[nH]c2c1C(=O)C(CN1CCOCC1)CC2 (stereo not given) [euspeclibcmpd2164],inactive: 0.203
4,Cc1ncc(CO)c(CO)c1O [euspeclibcmpd795],inactive: 0.71
5,N=C(N)NS(=O)(=O)c1ccc(N)cc1 [euspeclibcmpd1062],inactive: -0.469
6,C=CC1=C(C)c2cc3[nH]c(cc4[nH]c(cc5nc(cc1n2)=C(C)C5=CCC(=O)O)c(CCC(=O)O)c4C)c(C)c3=CC [euspeclibcmpd1059],inactive: 0.562
7,COc1cc2oc3cc(OC)c(OC)c(C=CC(C)C)c3c(=O)c2c(O)c1CC=C(C)C [euspeclibcmpd1769],inactive: -0.34
8,O=C1OCCc2oc(O)cc21 [euspeclibcmpd1348],active: 33
9,Cc1cc(=O)oc2cc(O)cc(O)c12 [euspeclibcmpd1994],inactive: -0.357
10,CC(=O)Oc1ccccc1C(=O)O [euspeclibcmpd28],active: 61
11,CC=C(C(=CC)c1ccc(O)cc1)c1ccc(O)cc1 [euspeclibcmpd91],active: 13.6
12,COc1ccc2c(c1)OC/C(=C\c1ccc(OC)c(O)c1)C2=O [euspeclibcmpd1638],active: 19.3
13,CC(C(=O)O)c1ccc2c(c1)Cc1cccnc1O2 (stereo not given) [euspeclibcmpd1088],inactive: -0.515
14,C[C@H]1COc2c(C3(N)CC3)c(F)cc3c(=O)c(C(=O)O)cn1c23 [euspeclibcmpd1086],inactive: 0.373
15,CC(=O)Nc1ccccc1 [euspeclibcmpd1065],inactive: -0.0812
16,CC(C)(C(=O)O)c1ccc(C(O)CCCN2CCC(C(O)(c3ccccc3)c3ccccc3)CC2)cc1 (stereo not given) [euspeclibcmpd659],inactive: -0.123
17,COc1c2ccoc2c(OC)c2oc(=O)ccc12 [euspeclibcmpd1722],inactive: -0.26
18,CN1C(C)(C)CCCC1(C)C [euspeclibcmpd1138],inactive: -0.0632
19,CC(CCc1ccccc1)NCC(O)c1ccc(O)c(C(N)=O)c1 (stereo not given) [euspeclibcmpd553],inactive: 0.0442
20,Cc1oncc1C(=O)Nc1ccc(C(F)(F)F)cc1 [euspeclibcmpd636],inactive: 1.63

row,SMILES,Srxn1-GFP intensity median modified Z-score
1,CC1CC(OC(=O)C(O)c2ccccc2)CC(C)(C)C1 (stereo not given) [euspeclibcmpd1173],inactive: -0.157
2,CCCCCCCCCc1ccc(OCCOCCOCCOCCOCCOCCOCCOCCOCCO)cc1 [euspeclibcmpd736],active: 18.5
3,COc1c(-c2coc3cc4c(cc3c2=O)CC(OC(C)=O)C(C)(C)O4)ccc2c1C=CC(C)(C)O2 (stereo not given) [euspeclibcmpd1654],active: 13.6
4,Cc1cc2c(cc1S(N)(=O)=O)S(=O)(=O)CCC2 [euspeclibcmpd1275],inactive: -0.173
5,CC(=O)NCCc1ccc(O)c(C2C(=O)C(=O)c3c(c(O)c4c(C(=O)O)c(C(=O)O)c(O)cc4c3O)C2=O)c1 (stereo not given) [euspeclibcmpd1580],inactive: -0.208
6,OCCOCCN1CCN(C2=Nc3ccccc3Sc3ccccc32)CC1 [euspeclibcmpd710],inactive: 0.638
7,Oc1oc(O)c2c1C1CCC2O1 [euspeclibcmpd1748],active: 3
8,Cc1ccc2c(Br)cc(Br)c(OC(=O)c3ccccc3)c2n1 [euspeclibcmpd2181],active: 2.44
9,Cc1ccc(Nc2c(F)cccc2Cl)c(CC(=O)O)c1 [euspeclibcmpd498],inactive: 1.17
10,Fc1ccc(C(c2ccc(F)cc2)N2CCN(C/C=C/c3ccccc3)CC2)cc1 [euspeclibcmpd360],inactive: -0.527
11,COc1ccc2oc(-c3ccccc3OC)cc(=O)c2c1 [euspeclibcmpd1670],active: 3.62
12,COc1ccc2oc(-c3ccccc3OC)cc(=O)c2c1,inactive: 0.553
13,N=C(N)c1ccc(OCCCCCOc2ccc(C(=N)N)cc2)cc1 [euspeclibcmpd1040],active: 12.5
14,c1ccc2c(Cc3c[nH]c4ccccc34)c[nH]c2c1 [euspeclibcmpd2024],active: 18.3
15,CCCc1cc(=O)[nH]c(=S)[nH]1 [euspeclibcmpd255],inactive: -0.449
16,COc1ccc(CCN(C)CCCC(C#N)(c2ccc(OC)c(OC)c2)C(C)C)cc1OC (stereo not given) [euspeclibcmpd958],active: 5.38
17,Cc1c(NS(=O)(=O)C(C)C)c(=O)n(-c2ccccc2)n1C,inactive: 1.19
18,CNCCCC1c2ccccc2C=Cc2ccccc21 [euspeclibcmpd899],inactive: -0.742
19,COC(=O)C1OC(=O)C2OC23[C@@]1(C)CCC1[C@]2(C)C(C[C@@H](O)[C@]13C)C(C)(C)[C@H](OC(C)=O)C[C@@H]2OC(C)=O (stereo not given in full) [euspeclibcmpd2102],inactive: -0.135
20,CC(=O)C1CCC2C3CC(C)=C4CC(=O)CC[C@]4(C)C3[C@@H](O)C[C@]12C (stereo not given in full) [euspeclibcmpd179],inactive: -0.562
